Reference: a collection of fitness landscapes (doi:10.1038/s41467-024-54723-y)
The full ranking holds about 18,000 sequences; the median of “TetR repression strength (sort-seq, GFP reporter)” is about 0.23, and the highest 2% start at about 0.68. The list shows a part of the results.

What follows are sequences tested against TetR (class B, Tn10) (UniProt P04483) (assay: TetR repression strength (sort-seq, GFP reporter) (relative to tetO2 = 1); higher = stronger repression). Conditions: E. coli.
UniProt P04483, sequence (P04483 whole entry): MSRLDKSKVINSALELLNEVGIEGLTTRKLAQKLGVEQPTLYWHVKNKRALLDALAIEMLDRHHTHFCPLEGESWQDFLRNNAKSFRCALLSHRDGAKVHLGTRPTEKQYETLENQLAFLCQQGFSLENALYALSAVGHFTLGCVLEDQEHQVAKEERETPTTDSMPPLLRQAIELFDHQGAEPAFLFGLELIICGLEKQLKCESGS
In short: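 E. coli SIG10-MAX carried a low-copy plasmid library with eight randomized operator positions between a constitutive promoter and sfGFP, with TetR constitutively expressed. Cells grew 5 h at 37 °C in LB with 50 µg/mL chloramphenicol, then 10^6 cells were FACS-sorted into 13 fluorescence bins, each Illumina-sequenced. Repression strength is the top bin index plus one minus the read-weighted mean bin, divided by the wild-type operator value. Three independent transformations; variants with ≥30 reads in all replicates and CV ≤0.5 were averaged.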
With TCCCCTCAAGTGTTAGAGA the TetR repression strength was 0.194.
Sequence TCCCGCTAAGTGTGTGAGA has a TetR repression strength of 0.243.
For TCCCAGCCAGTTAAGGAGA, the TetR repression strength was 0.137.
TCCCGAGGAGTGGCTGAGA showed a TetR repression strength of 0.0686.
TCCCTCTTAGTTGCGGAGA was tested, and the TetR repression strength was 0.21.
TCCCGTTCAGTTCTGGAGA was tested, and the TetR repression strength was 0.17.
TCCCGTTGAGTGGTGGAGA gave a TetR repression strength of 0.158.
TCCCCTAGAGTCAATGAGA gave a TetR repression strength of 0.594.
In the case of TCCCGCTAAGTTGCCGAGA, the TetR repression strength is reported as 0.248.
Work on TCCCATCGAGTCGGAGAGA yielded a TetR repression strength of 0.0897.
TCCCAGGAAGTGAGGGAGA was tested, and the TetR repression strength was 0.207.
TCCCGGGGAGTCGGCGAGA gave a TetR repression strength of 0.152.
TCCCATATAGTGGTTGAGA gave a TetR repression strength of 0.011.
Work on TCCCACCCAGTGGAGGAGA yielded a TetR repression strength of 0.207.
Sequence TCCCCGCCAGTACGTGAGA has a TetR repression strength of 0.443.
With TCCCGTTCAGTGAAGGAGA the TetR repression strength was 0.518.
TCCCAAGTAGTTTATGAGA gave a TetR repression strength of 0.325.
TCCCAATTAGTGTAAGAGA gave a TetR repression strength of 0.252.
TCCCCATAAGTCATCGAGA showed a TetR repression strength of 0.214.
TCCCTGTAAGTAAATGAGA gave a TetR repression strength of 0.264.
For TCCCACTCAGTAGGTGAGA, the TetR repression strength was 0.104.
Work on TCCCCTGCAGTGTCGGAGA yielded a TetR repression strength of 0.285.
For TCCCGGTAAGTTTGGGAGA, the TetR repression strength was 0.131.
With TCCCGTTTAGTAGTTGAGA the TetR repression strength was 0.028.
Work on TCCCCGCAAGTAGGTGAGA yielded a TetR repression strength of 0.0622.
For TCCCAGGTAGTAGGTGAGA, the TetR repression strength was 0.223.
Sequence TCCCAGCTAGTTACTGAGA has a TetR repression strength of 0.13.
TCCCTGTCAGTCGTGGAGA showed a TetR repression strength of 0.251.
Work on TCCCCGGCAGTGCCCGAGA yielded a TetR repression strength of 0.267.
Work on TCCCTAACAGTTCTAGAGA yielded a TetR repression strength of 0.328.
TCCCTCTCAGTGACAGAGA was tested, and the TetR repression strength was 0.607.
For TCCCCGTCAGTGTCGGAGA, the TetR repression strength was 0.17.
Sequence TCCCCGCGAGTGTTAGAGA has a TetR repression strength of 0.124.
In the case of TCCCTGCTAGTAGGTGAGA, the TetR repression strength is reported as 0.331.
TCCCTCAGAGTTTATGAGA gave a TetR repression strength of 0.104.
TCCCAGAGAGTTCAGGAGA showed a TetR repression strength of 0.446.
In the case of TCCCAGATAGTCTAGGAGA, the TetR repression strength is reported as 0.404.
TCCCCAGAAGTGATTGAGA showed a TetR repression strength of 1.1.
Work on TCCCCTCCAGTTCACGAGA yielded a TetR repression strength of 0.329.
For TCCCGTGTAGTAACCGAGA, the TetR repression strength was 0.276.
Sequence TCCCTAACAGTATTGGAGA has a TetR repression strength of 0.194.
Work on TCCCTGCAAGTCCTAGAGA yielded a TetR repression strength of 0.128.
In the case of TCCCAGCTAGTATTGGAGA, the TetR repression strength is reported as 0.41.
With TCCCTGAGAGTATGCGAGA the TetR repression strength was 0.0898.
Sequence TCCCCGGTAGTCCTGGAGA has a TetR repression strength of 0.0633.
In the case of TCCCTGATAGTAGATGAGA, the TetR repression strength is reported as 0.498.
TCCCATACAGTATTCGAGA showed a TetR repression strength of 0.274.
TCCCATCAAGTGGTGGAGA showed a TetR repression strength of 0.194.
Work on TCCCGCCGAGTAACCGAGA yielded a TetR repression strength of 0.0406.
TCCCGGCAAGTTTGAGAGA gave a TetR repression strength of 0.238.
TCCCGAAGAGTTCGGGAGA was tested, and the TetR repression strength was 0.225.
Work on TCCCTTCGAGTTCTTGAGA yielded a TetR repression strength of 0.241.
With TCCCTGAGAGTCCTAGAGA the TetR repression strength was 0.0655.
Sequence TCCCCTCAAGTCTTAGAGA has a TetR repression strength of 0.372.
For TCCCAGACAGTGTTTGAGA, the TetR repression strength was 0.283.
With TCCCTACTAGTCGCTGAGA the TetR repression strength was 0.319.
Sequence TCCCGAGCAGTTGGGGAGA has a TetR repression strength of 0.142.
With TCCCTGAAAGTCCTAGAGA the TetR repression strength was 0.282.
TCCCTTACAGTAATCGAGA gave a TetR repression strength of 0.276.
In the case of TCCCTCCAAGTCCCAGAGA, the TetR repression strength is reported as 0.375.
In the case of TCCCAATAAGTTGCTGAGA, the TetR repression strength is reported as 0.262.
Sequence TCCCCCTAAGTAACCGAGA has a TetR repression strength of 0.418.
With TCCCGGTCAGTGTCTGAGA the TetR repression strength was 0.228.
In the case of TCCCTAGGAGTCTTCGAGA, the TetR repression strength is reported as 0.093.
TCCCCGATAGTTATTGAGA showed a TetR repression strength of 0.38.
TCCCGTTGAGTTCGCGAGA was tested, and the TetR repression strength was 0.376.
Sequence TCCCTATTAGTGACCGAGA has a TetR repression strength of 0.582.
TCCCGGGGAGTGGGCGAGA was tested, and the TetR repression strength was 0.225.
Work on TCCCTGGGAGTAACAGAGA yielded a TetR repression strength of 0.221.
Work on TCCCCGTAAGTGTAGGAGA yielded a TetR repression strength of 0.0549.
Sequence TCCCGCTGAGTATGTGAGA has a TetR repression strength of 0.214.
With TCCCGATTAGTCTGTGAGA the TetR repression strength was 0.207.
For TCCCTGGTAGTGTGTGAGA, the TetR repression strength was 0.225.
With TCCCGCATAGTATTCGAGA the TetR repression strength was 0.352.
Work on TCCCCGCGAGTTGTGGAGA yielded a TetR repression strength of 0.162.
Work on TCCCTCAGAGTTGGCGAGA yielded a TetR repression strength of 0.104.
Sequence TCCCTCTTAGTAAAAGAGA has a TetR repression strength of 0.342.
TCCCTGAGAGTGAGTGAGA showed a TetR repression strength of 0.0407.
Sequence TCCCTTAAAGTTAATGAGA has a TetR repression strength of 0.194.
For TCCCTGGGAGTGAGGGAGA, the TetR repression strength was 0.183.
TCCCTAATAGTACTTGAGA was tested, and the TetR repression strength was 0.287.
TCCCTGCTAGTTCTCGAGA gave a TetR repression strength of 0.337.
TCCCAGGGAGTTATCGAGA was tested, and the TetR repression strength was 0.145.
TCCCTATAAGTAGAAGAGA was tested, and the TetR repression strength was 0.236.
With TCCCAGGCAGTGGTAGAGA the TetR repression strength was 0.276.
TCCCTCGAAGTCTAAGAGA gave a TetR repression strength of 0.171.
Work on TCCCGGAGAGTGATAGAGA yielded a TetR repression strength of 0.308.
Sequence TCCCTGAAAGTGAGTGAGA has a TetR repression strength of 0.249.
For TCCCTCCAAGTATCGGAGA, the TetR repression strength was 0.274.
TCCCCAGAAGTTCGCGAGA gave a TetR repression strength of 0.192.
Work on TCCCTGTGAGTGCTCGAGA yielded a TetR repression strength of 1.14.
Work on TCCCGACGAGTATGGGAGA yielded a TetR repression strength of 0.148.
In the case of TCCCGTTAAGTGTATGAGA, the TetR repression strength is reported as 0.404.
Work on TCCCAGGCAGTGTCGGAGA yielded a TetR repression strength of 0.225.
Work on TCCCTGAGAGTAGTGGAGA yielded a TetR repression strength of 0.12.
In the case of TCCCAGATAGTACATGAGA, the TetR repression strength is reported as 0.298.
TCCCTAACAGTGGGGGAGA was tested, and the TetR repression strength was 0.308.
Sequence TCCCTTGCAGTGCTAGAGA has a TetR repression strength of 0.498.
TCCCCATGAGTTTGCGAGA was tested, and the TetR repression strength was 0.317.
TCCCGGTGAGTGCGGGAGA gave a TetR repression strength of 0.191.
Work on TCCCGACAAGTACCGGAGA yielded a TetR repression strength of 0.272.
TCCCTGTGAGTCAGGGAGA was tested, and the TetR repression strength was 0.207.
